Residues, ends and D or L forms follow the SMILES beside them.
System: 293 cells
Conditions: 6 days, CPE, mean of triplicate experiments
Method: The 293 human embryonic kidney cell line (from the Cell Bank of the Chinese Academy of Sciences) was seeded on a 96-well plate with a concentration of 400,000/ml and incubated at 37° C., under 5% CO2 for 24 hours. The test drugs were then added. […] The positive control drug ganciclovir was in a serial dilution of 6000 μg/ml to 11.7 μg/ml. Cells at each concentration were seeded in 3 wells, 100 μl per well, and normal cells were setup as controls. Cells were incubated at 37° C. and under 5% CO2 for 6 days. A cytopathic effect (CPE) was observed under an inverted microscope everyday. Morphological: change of cells under 25% was defined “+”, 26%-50% was defined “++”, 51%-75% was defined “+++”, and 76%-100% was defined “++++”. Toxic dose 50 (TD50) and toxic dose 0 (TD0) of the drugs were calculated by the Reed-Muench method.
The above-mentioned drugs and positive control ganciclovir were applied to the 293 cell cultures. The toxic dose 0 (TD0) and toxic dose 50 (TD50) were calculated using the CPE method. The results listed below were means of triplicate experiments: […]

| Compound | toxic dose 0 (TD0) | toxic dose 50 (TD50) |
| --- | --- | --- |
| CC[C@H](C)[C@H](NC(=O)[C@@H](NC(=O)[C@@H]1CCCN1C(=O)[C@H](CC(=O)O)NC(=O)[C@H](Cc1c[nH]cn1)NC(=O)[C@@H](NC(=O)[C@@H](N)CCSC)[C@@H](C)O)C(C)C)C(=O)N[C@@H](CO)C(=O)N[C@@H](CC(C)C)C(=O)N1CCC[C@H]1C(=O)N[C@H](C(=O)N[C@H](C(=O)O)[C@@H](C)O)[C@@H](C)O [HAb18G-AP-1] (H-MTHDPVISLPTT-OH) | HAb18G-AP-1: toxic dose 0 (TD0): >1000 ± 0 μg/ml, | toxic dose 50 (TD50): >1000 ± 0 μg/ml |
| N=C(N)NCCC[C@H](NC(=O)[C@H](Cc1c[nH]cn1)NC(=O)[C@H](Cc1c[nH]c2ccccc12)NC(=O)[C@H](Cc1c[nH]cn1)NC(=O)[C@H](CCCCN)NC(=O)[C@H](Cc1c[nH]cn1)NC(=O)[C@H](Cc1c[nH]cn1)NC(=O)[C@H](Cc1ccccc1)NC(=O)[C@@H]1CCCN1C(=O)[C@@H](N)Cc1ccc(O)cc1)C(=O)N1CCC[C@H]1C(=O)N[C@@H](CC(N)=O)C(=O)O [HAb18G-AP-6, Tyr Pro Phe His His Lys His Typ His Arg Pro Asn] (H-YPFHHKHWHRPN-OH) | HAb18G-AP-6: toxic dose 0 (TD0): >1000 ± 0 μg/ml, | toxic dose 50 (TD50): >1000 ± 0 μg/ml |
| CC(C)C[C@H](NC(=O)[C@H](CCCCN)NC(=O)[C@@H](N)Cc1ccc(O)cc1)C(=O)N1CCC[C@H]1C(=O)NCC(=O)N[C@@H](Cc1c[nH]cn1)C(=O)N[C@@H](Cc1c[nH]cn1)C(=O)N[C@@H](Cc1c[nH]cn1)C(=O)N[C@@H](Cc1c[nH]cn1)C(=O)N[C@@H](Cc1ccc(O)cc1)C(=O)N[C@@H](CCCNC(=N)N)C(=O)N1CCC[C@H]1C(=O)O [HAb18G-AP-9] (H-YKLPGHHHHYRP-OH) | HAb18G-AP-9: toxic dose 0 (TD0): >1000 ± 0 μg/ml, | toxic dose 50 (TD50): >1000 ± 0 μg/ml |
